Results taken from patent publication US20150290148A1 (priority 2006, published 2015).

Assays:
[1] = test system: rat hippocampal slice cultures (RHSC); assay: Oxygen-glucose deprivation (OGD) in rat hippocampal slice cultures, propidium iodide uptake; format: cell-based
[2] = test system: AKT
[3] = test system: rat hippocampal slice cultures (RHSC)
Procedure: All experimental animal procedures were approved by the University Institutional Animal Care and Use Committee. Neonatal rats (Sprague-Dawley) at postnatal Day 7 (P7) were decapitated and the hippocampi dissected out under sterile conditions. 400 μm transverse hippocampal slices were prepared with a Mcllwain tissue chopper and cultured on Millicell permeable membranes (0.4 μM pore size) in six well plates for 6 days at 37° C. in 5% CO2. […]
For oxygen-glucose deprivation (OGD) experiments, a glucose free balanced salt solution (BSS) (120 mM NaCl, 5 mM KCl, 1.25 mM NaH2PO4, 2 mM MgSO4, 2 mM CaCl2, 25 mM NaHCO3, 20 mM HEPES, 25 mM sucrose; pH 7.3) was bubbled for 1 hr with 5% CO2 95% N2 at 10 L/hr. […] Neuronal damage was determined by staining slices with propidium iodide (PI; Molecular Probes, Eugene, Oreg.) and quantifying the relative fluorescence intensity (excitation 540/emission 630). […] Images were taken of the hippocampal slices prior to OGD to establish baseline fluorescence. After OGD slices were placed in normal media containing 2 μM PI and imaged again at 48 hours post-OGD using fluorescence optics with an Olympus IMT-2 microscope and a Hamamatsu camera. The total fluorescent intensity in each slice was determined using Image Pro Plus software and all values were expressed as percent change from untreated OGD. […]

CCN1CCC[C@H]1CNC(=O)c1c(O)c(Cl)cc(Cl)c1OC [raclopride]
effect of antagonist on neuroprotective effect of MAP (PI uptake) ([1]; antagonist plus 100 μM MAP immediately after 60 min OGD, 24 hrs post-OGD): significantly decreased the neuroprotective effect of MAP | effect on MAP induced AKT phosphorylation [2]: significantly decreased the MAP induced phosphorylation of AKT | effect on anti-apoptotic effect of MAP (TUNEL) [3]: measurably decreased

NC[C@H](O)c1ccc(O)c(O)c1 [norepinephrine]
neuroprotective response (PI uptake) 24 hrs post-OGD ([1]; 10 nM-100 nM, immediately after OGD): moderate neuroprotective response

CN[C@@H](C)Cc1ccccc1 [methamphetamine]
PI uptake (neuronal death) vs untreated non-OGD control ([1]; 100 μM MAP added 24 hr after OGD): significant increase in neuronal death

NCCc1ccc(O)c(O)c1 [dopamine]
PI uptake vs untreated non-OGD control ([1]; 10 nM after OGD): significantly different from the untreated non-OGD control | PI uptake vs untreated non-OGD control ([1]; 100 nM-1 mM after OGD): did not differ from the untreated, non-OGD control | neuroprotective response (PI uptake) 24 hrs post-OGD ([1]; all concentrations tested, 10 nM-1 mM, after 60 min OGD, listed as Dopamine): significant neuroprotective effect | toxicity in RHSC dose response ([1]; up to 1 mM after OGD): failed to induce toxicity

NCCc1c[nH]c2ccc(O)cc12 [serotonin]
neuroprotective response (PI uptake) 24 hrs post-OGD ([1]; 10 nM-100 μM, immediately after OGD): moderate neuroprotective response | neuronal loss (PI uptake) vs untreated OGD control ([1]; 1 mM, immediately after OGD): increased neuronal loss

O=c1cc(N2CCOCC2)oc2c(-c3ccccc3)cccc12 [LY29002]
effect on anti-apoptotic effect of MAP (TUNEL) ([3]; added after OGD prior to MAP treatment, 24 hrs post-OGD): disrupts the anti-apoptotic effect of MAP

Where two headings read alike, the source gives them in different places.
